Here are results for 57 molecules from PubChem BioAssay AID463173 (ICCB-Longwood Screening Facility, Harvard Medical School, 2010).

In all, about 52,000 compounds went through this assay and about 1,700 (3.3%) were called active. No stated cut-off is given here; in the data, active means survival mostly below about 52% (no sharp cut-off); inactive means mostly above about 56%. This is one part of the list.

For this assay, the system named is Wild type. The assay is described as follows: S. aureus survival, RN4220 and DeltatarO strains – OD600, teichoic acid synthesis inhibitors, primary screen (AID 463173). The following applies: S. aureus RN4220 wild type/DeltatarO growth, OD600, 18 h, stronger effect = lower value, screened at 18.75 µg/mL (by protocol).
As for `CC(=O)c1cccc(NC(=O)c2sc(-n3nc(C)c(Cc4ccc5c(c4)OCO5)c3C)nc2C)c1`, the survival was inactive: 94%.
On to `CCOc1ccc(-c2cccc(NS(=O)(=O)c3c(C)cc(C)cc3C)c2)nn1`, for which the survival is inactive: 82%.
Turning to `COc1ccccc1CCNC(=O)C(=O)NCC(c1ccc2c(c1)OCO2)N1CCOCC1` (configuration not stated), the survival is inactive: 82%.
Consider `CCOC(=O)c1c(NC(C)=O)c2c3c(sc2n1Cc1nc(-c2cccc(Cl)c2)oc1C)CCCC3`, for which the survival was inactive: 79%.
As to `Cc1c(Cl)cccc1NC(=O)Cn1c(CCC(=O)O)ccc1-c1cccs1`, the survival was inactive: 82%.
`CC(C)(C)OC(=O)N1CCC(c2c(C(=O)N3CCCCC3)cnn2-c2ccc(Cl)cc2)CC1`: the survival was inactive: 65%.
Turning to `COc1ccc(OC)c(-c2nnc3n(Cc4ccc(C)cc4)c(=O)c4ccccc4n23)c1`, the survival is inactive: 86%.
With `Cc1c(-c2ccc(Br)cc2)c(=O)oc2ccc(OC(=O)N3CCOCC3)cc12` the figure was inactive: 75%; with `CCN(CC)C(=O)CSc1nc(-c2ccccc2F)nc2c1Cc1c(CO)cnc(C)c1O2`, inactive: 111%; with `COC(=O)c1ccccc1NC(=O)CSc1nc2ccsc2c(=O)n1CCC(C)C`, inactive: 78%.
For the molecule `c1ccc(CSc2ncnc3c2cnn3-c2ccccc2)cc1`, the survival is inactive: 104%.
Turning to `CCOc1cc(C(=O)NCCc2csc3nc(-c4ccc(C)cc4)nn23)cc(OCC)c1OCC`, the survival was inactive: 71%.
Consider `C=Cc1ccc(Cn2c(C)c(CNCc3cccc(Br)c3)c(C(=O)O)c2C)cc1`, for which the survival was inactive: 82%.
On to `Cc1cc(C)nc(SCC(=O)Nc2nc(=O)c3ccccc3s2)n1`, for which the survival was inactive: 104%.
Take `COc1ccc(Cc2nc3ccccc3[nH]c2=O)cc1`: the survival was inactive: 68%.
`Cc1c(Cl)cccc1-c1ccc(C(=O)Nc2ccc(F)cc2)o1`: the survival is active: -1%.
On to `CCOC(=O)C1=C(C)NC(=O)NC1c1ccccc1` (configuration not stated), for which the survival was inactive: 115%.
For `Cc1cccc(Cn2c(CNS(=O)(=O)c3ccc4c(c3)CCCC4)nc3cccnc32)c1`, the survival was inactive: 81%.
With `CCCCN(C(=O)C1CCC1)c1nnc(-c2ccncc2)s1` the figure was inactive: 94%; with `O=C(c1ccccc1Cl)N1c2ncnn2C2(CCCCC2)[C@@H]2CCCC[C@@H]21`, inactive: 92%; with `COC(=O)c1ccc(OCC2c3cc(OC)c(OC)cc3CCN2C(=O)COc2ccc(Cl)cc2)cc1` (configuration not stated), inactive: 77%.
On to `CCOC(=O)c1c(S(=O)(=O)N2CCCC(C(=O)NCc3ccc(Cl)cc3)C2)c(C)n(C)c1C` (configuration not stated), for which the survival was inactive: 73%.
In the case of `COc1ccc(F)cc1S(=O)(=O)NCCc1csc2nc(-c3cccc(C)c3)nn12`, the survival is inactive: 73%.
Then `Cc1cccc(NC(=O)CCS(=O)(=O)c2ccc3c(c2)n(C)c(=O)c(=O)n3C)c1C`, with inactive: 138%; and `CCOC(=O)c1noc2ncn(CC(=O)Nc3ccc(C)c(F)c3)c(=O)c12`, with inactive: 72%; and `CCc1cccc(NC(=O)C2CCN(C(=O)c3cnn(-c4ccccc4)c3-n3cccc3)CC2)c1`, with inactive: 83%.
For the molecule `Nc1nc(Nc2ccccc2F)sc1C(=O)c1ccc(Cl)cc1`, the survival is active: -7%.
With `CCOC(=O)C1CCCN(C(=O)c2nn(-c3ccc(OC)cc3)c(=O)c3c2c2ccccc2n3C)C1` (configuration not stated) the figure was inactive: 125%.
In the case of `Cc1ccc(C(=O)NCC(=O)O)o1`, the survival is inactive: 103%.
As for `CCc1ccc(-n2nc(C)c3c(C)cc(=O)n(CC(=O)N4CCCc5ccccc54)c32)cc1`, the survival is inactive: 84%.
As for `O=c1cc(-c2ccccc2)n2c(SCc3ccccc3)nnc2[nH]1`, the survival was inactive: 74%.
As to `Cc1ccc(-n2c(=O)c3c(C)c(C(=O)N(C)C)sc3n(CC(=O)C(C)(C)C)c2=O)cc1C`, the survival was inactive: 94%.
In the case of `Cc1c(C(=O)N(Cc2ccccc2F)C2CCS(=O)(=O)C2)oc2ccc(F)cc12` (configuration not stated), the survival was inactive: 100%.
As to `Cn1c(=O)c2c(nc(NCc3ccccc3)n2Cc2ccccc2)n(C)c1=O`, the survival was inactive: 79%.
Then `Cn1c(=O)c2c(SCC(=O)NCc3ccco3)nc(-c3ccccc3)nc2n(C)c1=O`, with inactive: 88%.
As to `CCOC(=O)c1cnc2ccc(OC)cc2c1NCCc1ccccc1`, the survival was active: 0%.
`COc1ccc(N2CC(NC(=O)COc3ccccc3)CC2=O)cc1OC` (configuration not stated): the survival is inactive: 73%.
For `c1ccc(CCCNc2ncccn2)cc1`, the survival was inactive: 101%.
Consider `CCc1ccc(-n2nc3cc(C)c(NC(=O)c4cccc5ccccc45)cc3n2)cc1`, for which the survival is inactive: 62%.
With `Cc1cccc(CNC(=O)Cn2nc(C)n3c(cc4cc(F)ccc43)c2=O)c1` the figure was inactive: 75%.
Take `CN(c1ncnc2onc(-c3cccc(Cl)c3)c12)C1CCCCC1`: the survival is active: -1%.
Then `Cc1ccc(-n2nc(CO)c(C(=O)NCc3ccccn3)n2)cc1C`, with inactive: 113%.
In the case of `C=CCNC(=O)c1ccccc1NC(=O)C1COc2ccccc2O1` (configuration not stated), the survival is inactive: 103%.
For `COc1ccccc1/C=C/C(=O)N1CCC(C(N)=O)CC1`, the survival was inactive: 103%.
Then `CC1CCn2c(nc3cc(C(=O)NCCc4ccc(Cl)cc4)ccc32)C1` (configuration not stated), with inactive: 124%.
For the molecule `CC(C)CN(CCCNC(=O)Cn1ncc2c3ccccc3n(C)c2c1=O)CC(C)C`, the survival was inactive: 82%.
With `Cc1ccc(CNC(=O)c2cc3c(s2)-c2ccccc2SC3)cc1`, the survival is inactive: 120%.
Take `CCOC(=O)c1cc(-c2ccccc2)n(CC(=O)NC(C)c2ccccc2)c1C` (configuration not stated): the survival is inactive: 81%.
Regarding `COc1ccc(Cl)cc1NC(=O)CCS(=O)(=O)c1nc(-c2cccs2)cc(C(F)(F)F)n1`, the survival is inactive: 63%.
With `CCOC(=O)c1ccc(NC(=O)Nc2c[nH]c(=O)[nH]c2=O)cc1` the figure was inactive: 125%.
Turning to `CCc1ccc(OC(C)C(=O)N2CCC(c3nc4ccccc4s3)CC2)cc1` (configuration not stated), the survival is inactive: 35%.
Consider `CC(C)COc1ccc(C(=O)Nc2cccc(-c3nc4ccccc4[nH]3)c2)cc1`, for which the survival was inactive: 60%.
With `Cc1cc(C)cc(NC(=O)CCS(=O)(=O)c2cc3c4c(c2)CCN4C(=O)CC3)c1`, the survival is inactive: 81%.
With `CCN(CC)Cn1nc(-c2ccccc2Cl)oc1=S`, the survival is inactive: 114%.
Then `CCn1cc(C(=O)N2CCN(c3cccc(C(F)(F)F)c3)CC2)c2cc(OC)c(OC)cc2c1=O`, with inactive: 160%; and `CN(Cc1ccccc1)Cn1[nH]c(=O)ccc1=O`, with inactive: 101%; and `COc1ccccc1-c1cc2nc(C)c(CCC(=O)Nc3ccc(Br)c(C)c3)c(C)n2n1`, with inactive: 69%.
